The text below walks through data of FireProtDB (doi:10.1021/bi00091a031).

Where “and” joins values, the source holds several entries; their conditions need not be identical. Equal entries are not always repeated.

For this data set the following is noted: Homo sapiens; pH 8; 25 °C; GdnHCl; CD; Tris 10 mM; reversible: yes.

On to Insulin wild type (sequence not shown), for which the denaturant m value was 0.86 kcal/mol/M and 0.83 kcal/mol/M; the “denaturant midpoint (higher = more stable)” value is 4.37 M and 4.5 M and 4.67 M; the unfolding free energy is 3.76 kcal/mol and 3.86 kcal/mol.
